Measurements as given in article PMC10621992.
No constants are given. Whether binding was seen depends on the method and setting. For some of these results: In cells and extracts the contact can be indirect. Some entries that bind do so weakly or less than the wild type. For some of these results: Where a sequence is shown, tags or fusion partners need not be part of it.

Protein sequences, listed by entry. Tags and fused reporters are not part of them.
UniProt P51451: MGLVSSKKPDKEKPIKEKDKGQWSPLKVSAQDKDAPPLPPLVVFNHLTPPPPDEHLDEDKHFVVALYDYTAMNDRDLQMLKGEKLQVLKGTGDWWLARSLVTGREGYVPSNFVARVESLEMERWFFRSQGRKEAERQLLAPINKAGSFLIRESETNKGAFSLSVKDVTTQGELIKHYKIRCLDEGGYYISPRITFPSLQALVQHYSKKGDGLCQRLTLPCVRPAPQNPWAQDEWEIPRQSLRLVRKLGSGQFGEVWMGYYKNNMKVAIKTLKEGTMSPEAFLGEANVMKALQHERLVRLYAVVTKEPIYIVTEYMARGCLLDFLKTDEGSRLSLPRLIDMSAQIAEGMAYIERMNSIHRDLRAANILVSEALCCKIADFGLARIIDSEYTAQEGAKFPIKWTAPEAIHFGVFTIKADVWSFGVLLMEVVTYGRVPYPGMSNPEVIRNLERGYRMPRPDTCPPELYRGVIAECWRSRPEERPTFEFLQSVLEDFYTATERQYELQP

molecular target: BLK, overexpressed in HEK293 cells (human) (UniProt P51451); experiment: co-IP

Row | binding | Binder
1 | no binding | RIG-I (retinoic acid-inducible gene-I), overexpressed in HEK293 cells (protein, UniProt O95786 1-925) MTTEQRRSLQAFQDYIRKTLDPTYILSYMAPWFREEEVQYIQAEKNNKGPMEAATLFLKFLLELQEEGWFRGFLDALDHAGYSGLYEAIESWDFKKIEKLEEYRLLLKRLQPEFKTRIIPTDIISDLSECLINQECEEILQICSTKGMMAGAEKLVECLLRSDKENWPKTLKLALEKERNKFSELWIVEKGIKDVETEDLEDKMETSDIQIFYQEDPECQNLSENSCPPSEVSDTNLYSPFKPRNYQLELALPAMKGKNTIICAPTGCGKTFVSLLICEHHLKKFPQGQKGKVVFFANQIPVYEQQKSVFSKYFERHGYRVTGISGATAENVPVEQIVENNDIIILTPQILVNNLKKGTIPSLSIFTLMIFDECHNTSKQHPYNMIMFNYLDQKLGGSSGPLPQVIGLTASVGVGDAKNTDEALDYICKLCASLDASVIATVKHNLEELEQVVYKPQKFFRKVESRISDKFKYIIAQLMRDTESLAKRICKDLENLSQIQNREFGTQKYEQWIVTVQKACMVFQMPDKDEESRICKALFLYTSHLRKYNDALIISEHARMKDALDYLKDFFSNVRAAGFDEIEQDLTQRFEEKLQELESVSRDPSNENPKLEDLCFILQEEYHLNPETITILFVKTRALVDALKNWIEGNPKLSFLKPGILTGRGKTNQNTGMTLPAQKCILDAFKASGDHNILIATSVADEGIDIAQCNLVILYEYVGNVIKMIQTRGRGRARGSKCFLLTSNAGVIEKEQINMYKEKMMNDSILRLQTWDEAVFREKILHIQTHEKFIRDSQEKPKPVPDKENKKLLCRKCKALACYTADVRVIEECHYTVLGDAFKECFVSRPHPKPKQFSSFEKRAKIFCARQNCSHDWGIHVKYKTFEIPVIKIESFVVEDIATGVQTLYSKWKDFHFEKIPFDPAEMSK
2 | no binding | TBK1, overexpressed in HEK293 cells (enzyme, UniProt Q9UHD2 1-729) MQSTSNHLWLLSDILGQGATANVFRGRHKKTGDLFAIKVFNNISFLRPVDVQMREFEVLKKLNHKNIVKLFAIEEETTTRHKVLIMEFCPCGSLYTVLEEPSNAYGLPESEFLIVLRDVVGGMNHLRENGIVHRDIKPGNIMRVIGEDGQSVYKLTDFGAARELEDDEQFVSLYGTEEYLHPDMYERAVLRKDHQKKYGATVDLWSIGVTFYHAATGSLPFRPFEGPRRNKEVMYKIITGKPSGAISGVQKAENGPIDWSGDMPVSCSLSRGLQVLLTPVLANILEADQEKCWGFDQFFAETSDILHRMVIHVFSLQQMTAHKIYIHSYNTATIFHELVYKQTKIISSNQELIYEGRRLVLEPGRLAQHFPKTTEENPIFVVSREPLNTIGLIYEKISLPKVHPRYDLDGDASMAKAITGVVCYACRIASTLLLYQELMRKGIRWLIELIKDDYNETVHKKTEVVITLDFCIRNIEKTVKVYEKLMKINLEAAELGEISDIHTKLLRLSSSQGTIETSLQDIDSRLSPGGSLADAWAHQEGTHPKDRNVEKLQVLLNCMTEIYYQFKKDKAERRLAYNEEQIHKFDKQKLYYHATKAMTHFTDECVKKYEAFLNKSEEWIRKMLHLRKQLLSLTNQCFDIEEEVSKYQEYTNELQETLPQKMFTASSGIKHTMTPIYPSSNTLVEMTLGMKKLKEEMEGVVKELAENNHILERFGSLTMDGGLRNVDCL
3 | no binding | IRF7, overexpressed in HEK293 cells (protein, UniProt Q92985 1-503) MALAPERAAPRVLFGEWLLGEISSGCYEGLQWLDEARTCFRVPWKHFARKDLSEADARIFKAWAVARGRWPPSSRGGGPPPEAETAERAGWKTNFRCALRSTRRFVMLRDNSGDPADPHKVYALSRELCWREGPGTDQTEAEAPAAVPPPQGGPPGPFLAHTHAGLQAPGPLPAPAGDKGDLLLQAVQQSCLADHLLTASWGADPVPTKAPGEGQEGLPLTGACAGGPGLPAGELYGWAVETTPSPGPQPAALTTGEAAAPESPHQAEPYLSPSPSACTAVQEPSPGALDVTIMYKGRTVLQKVVGHPSCTFLYGPPDPAVRATDPQQVAFPSPAELPDQKQLRYTEELLRHVAPGLHLELRGPQLWARRMGKCKVYWEVGGPPGSASPSTPACLLPRNCDTPIFDFRVFFQELVEFRARQRRGSPRYTIYLGFGQDLSAGRPKEKSLVLVKLEPWLCRVHLEGTQREGVSSLDSSSLSLCLSSANSLYDDIECFLMELEQPA
4 | no binding | IRF8, overexpressed in HEK293 cells (protein, UniProt Q02556 1-426) MCDRNGGRRLRQWLIEQIDSSMYPGLIWENEEKSMFRIPWKHAGKQDYNQEVDASIFKAWAVFKGKFKEGDKAEPATWKTRLRCALNKSPDFEEVTDRSQLDISEPYKVYRIVPEEEQKCKLGVATAGCVNEVTEMECGRSEIDELIKEPSVDDYMGMIKRSPSPPEACRSQLLPDWWAQQPSTGVPLVTGYTTYDAHHSAFSQMVISFYYGGKLVGQATTTCPEGCRLSLSQPGLPGTKLYGPEGLELVRFPPADAIPSERQRQVTRKLFGHLERGVLLHSSRQGVFVKRLCQGRVFCSGNAVVCKGRPNKLERDEVVQVFDTSQFFRELQQFYNSQGRLPDGRVVLCFGEEFPDMAPLRSKLILVQIEQLYVRQLAEEAGKSCGAGSVMQAPEEPPPDQVFRMFPDICASHQRSFFRENQQITV
5 | binds | IRF9, overexpressed in HEK293 cells (protein, UniProt Q00978 1-393) MASGRARCTRKLRNWVVEQVESGQFPGVCWDDTAKTMFRIPWKHAGKQDFREDQDAAFFKAWAIFKGKYKEGDTGGPAVWKTRLRCALNKSSEFKEVPERGRMDVAEPYKVYQLLPPGIVSGQPGTQKVPSKRQHSSVSSERKEEEDAMQNCTLSPSVLQDSLNNEEEGASGGAVHSDIGSSSSSSSPEPQEVTDTTEAPFQGDQRSLEFLLPPEPDYSLLLTFIYNGRVVGEAQVQSLDCRLVAEPSGSESSMEQVLFPKPGPLEPTQRLLSQLERGILVASNPRGLFVQRLCPIPISWNAPQAPPGPGPHLLPSNECVELFRTAYFCRDLVRYFQGLGPPPKFQVTLNFWEESHGSSHTPQNLITVKMEQAFARYLLEQTPEQQAAILSLV
6 | no binding | MDA5 (melanoma differentiation-associated gene 5), overexpressed in HEK293 cells (protein, UniProt Q9BYX4 1-1025) MSNGYSTDENFRYLISCFRARVKMYIQVEPVLDYLTFLPAEVKEQIQRTVATSGNMQAVELLLSTLEKGVWHLGWTREFVEALRRTGSPLAARYMNPELTDLPSPSFENAHDEYLQLLNLLQPTLVDKLLVRDVLDKCMEEELLTIEDRNRIAAAENNGNESGVRELLKRIVQKENWFSAFLNVLRQTGNNELVQELTGSDCSESNAEIENLSQVDGPQVEEQLLSTTVQPNLEKEVWGMENNSSESSFADSSVVSESDTSLAEGSVSCLDESLGHNSNMGSDSGTMGSDSDEENVAARASPEPELQLRPYQMEVAQPALEGKNIIICLPTGSGKTRVAVYIAKDHLDKKKKASEPGKVIVLVNKVLLVEQLFRKEFQPFLKKWYRVIGLSGDTQLKISFPEVVKSCDIIISTAQILENSLLNLENGEDAGVQLSDFSLIIIDECHHTNKEAVYNNIMRHYLMQKLKNNRLKKENKPVIPLPQILGLTASPGVGGATKQAKAEEHILKLCANLDAFTIKTVKENLDQLKNQIQEPCKKFAIADATREDPFKEKLLEIMTRIQTYCQMSPMSDFGTQPYEQWAIQMEKKAAKEGNRKERVCAEHLRKYNEALQINDTIRMIDAYTHLETFYNEEKDKKFAVIEDDSDEGGDDEYCDGDEDEDDLKKPLKLDETDRFLMTLFFENNKMLKRLAENPEYENEKLTKLRNTIMEQYTRTEESARGIIFTKTRQSAYALSQWITENEKFAEVGVKAHHLIGAGHSSEFKPMTQNEQKEVISKFRTGKINLLIATTVAEEGLDIKECNIVIRYGLVTNEIAMVQARGRARADESTYVLVAHSGSGVIEHETVNDFREKMMYKAIHCVQNMKPEEYAHKILELQMQSIMEKKMKTKRNIAKHYKNNPSLITFLCKNCSVLACSGEDIHVIEKMHHVNMTPEFKELYIVRENKALQKKCADYQINGEIICKCGQAWGTMMVHKGLDLPCLKIRNFVVVFKNNSTKKQYKKWVELPITFPNLDYSECCLFSDED

molecular target: GST-BLK, prokaryotically expressed and purified (human) (UniProt P51451); experiment: pull-down; both purified

Row | binding | Binder
7 | no binding | TBK1-Flag, purified from HEK293 cells (enzyme, UniProt Q9UHD2 1-729) MQSTSNHLWLLSDILGQGATANVFRGRHKKTGDLFAIKVFNNISFLRPVDVQMREFEVLKKLNHKNIVKLFAIEEETTTRHKVLIMEFCPCGSLYTVLEEPSNAYGLPESEFLIVLRDVVGGMNHLRENGIVHRDIKPGNIMRVIGEDGQSVYKLTDFGAARELEDDEQFVSLYGTEEYLHPDMYERAVLRKDHQKKYGATVDLWSIGVTFYHAATGSLPFRPFEGPRRNKEVMYKIITGKPSGAISGVQKAENGPIDWSGDMPVSCSLSRGLQVLLTPVLANILEADQEKCWGFDQFFAETSDILHRMVIHVFSLQQMTAHKIYIHSYNTATIFHELVYKQTKIISSNQELIYEGRRLVLEPGRLAQHFPKTTEENPIFVVSREPLNTIGLIYEKISLPKVHPRYDLDGDASMAKAITGVVCYACRIASTLLLYQELMRKGIRWLIELIKDDYNETVHKKTEVVITLDFCIRNIEKTVKVYEKLMKINLEAAELGEISDIHTKLLRLSSSQGTIETSLQDIDSRLSPGGSLADAWAHQEGTHPKDRNVEKLQVLLNCMTEIYYQFKKDKAERRLAYNEEQIHKFDKQKLYYHATKAMTHFTDECVKKYEAFLNKSEEWIRKMLHLRKQLLSLTNQCFDIEEEVSKYQEYTNELQETLPQKMFTASSGIKHTMTPIYPSSNTLVEMTLGMKKLKEEMEGVVKELAENNHILERFGSLTMDGGLRNVDCL
